Data on one molecule can be found in patent publication US20240122985A1, “ANTIBODIES, COMBINATIONS COMPRISING ANTIBODIES, BIOMARKERS, USES & METHODS” (KYMAB LIMITED, priority 2016, published 2024).

The assay deals with T1, CHO-S expressed hOX40L (Homo sapiens, UniProt P23510).
T1 construct: CHO-S cells (optionally transfected with full length human OX40L); expressed in transfected cells
T1 sequence (P23510 1-183): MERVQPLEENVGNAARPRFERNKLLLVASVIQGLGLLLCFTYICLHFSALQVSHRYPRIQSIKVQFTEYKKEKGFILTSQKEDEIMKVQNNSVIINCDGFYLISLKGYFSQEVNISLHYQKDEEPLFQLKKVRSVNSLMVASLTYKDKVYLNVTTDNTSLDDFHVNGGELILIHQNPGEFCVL
Description: Binding to CHO-S expressed hOX40L and receptor neutralisation (FACS). It is filed as cell-based. On the procedure:
CHO-S cells expressing hOX40L or untransfected CHO-S cells, diluted in FACS buffer (PBS+1% w/v BSA+0.1% w/v NaN3) were distributed to a 96 well V-bottom plate (Greiner) at a density of 1×10^5 cells per well. Cells were washed with 150 μL of PBS and centrifuged at 300×g for 3 min. Supernatant was aspirated and 150 μL of PBS added. This wash step was repeated.
25 μL of hybridoma supernatant or purified antibody from hybridoma supernatant diluted in FACS buffer was added to the washed cells and incubated for 10-15 minutes. Reference Antibody or mouse IgG1 control antibody (Sigma) were diluted in FACS buffer to 20 μg/mL and 25 μL added to cells. 25 μL of human OX40R Fc (in-house) diluted to 1000 ng/mL in FACS buffer were then added to wells. Cells were incubated at 4° C. for 30 minutes. […]
To fix cells 100 μL 2% v/v paraformaldehyde was added and cells incubated for 30 minutes at 4° C., cells were pelleted by centrifugation 300×g and the plates and resuspended in 50 μL of FACS buffer. PE and APC signal intensity (geomean) was measured by flow cytometry using a BD FACS Array instrument.
% of control binding was calculated using geomean fluorescence as described in equation 1 where total binding was defined as reference antibody at 10 μg/mL and non-specific binding as mouse IgG1 antibody at 10 μg/mL. % receptor binding was calculated using Equation 3.

B1: 19H01 (hybridoma): anti-OX40L antibody from hybridoma; VH Seq ID No:94, VL Seq ID No:108 (antibody, V domains shown)
VH: [about 100 residues omitted here]DFLWFGEFPFDYWGQGTLVTVSS
VL: DIQMTQSPSSLSASVGDRVTITCRASQGISNYLAWYQQKPGKIPKLLIYAASTLQSGVPSRFSGSGSGTDFTLTISSLQPEDVATYYCQKYNSAPRTFGQGTKVEIK
modifications: 19H01 - VH Amino Acid Sequence; 19H01 - VL Amino Acid Sequence
Take B1: the “FACS Binding” value is “YES”.
